Experimental data reported in PubChem BioAssay AID1671193 (National Center for Advancing Translational Sciences (NCATS), 2021).
In all, about 150,000 compounds went through this assay and about 180 (0.12%) were called active. Inconclusive results, whose numbers are uncertain, are shown with a selection of clear calls. Calls come from the whole dose curve; as a rule, active = well fitted cell-killing curve with a large enough effect; inconclusive = small, poorly fitted or top-dose-only effect, or effect the other way; inactive = flat fitted curve, though single readings scatter. Where the call is inconclusive, the potency comes from a doubtful curve fit.

Experiment: GF-AFC viability counterscreen for inhibitors of alpha-synuclein gene (SNCA) expression; note: nearly all actives have a fitted effect of over 30% in size;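 for activity change, negative = cytotoxicity: 0% = DMSO-treated cells and -100% = medium-only wells without cells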
Conditions: HEK-293-SNCA-luc viability, GF-AFC fluorescence, 24 h; activity change, negative = cytotoxicity: at 57.1 µM (top of the series) unless noted
Outline: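 Cytotoxicity counterscreen: after 24 h compound treatment of genome-edited SNCA-luciferase HEK-293 cells, live-cell protease substrate GF-AFC read by fluorescence after 30 min; activity scaled between DMSO (0%) and medium-only (-100%), curves Hill-fitted.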
Potency is the fitted concentration of half-maximal effect; tags give direction and shape of the fitted curve.

Compound | Potency | activity change, negative = cytotoxicity
CCOc1cccc(NC(=O)c2sc3nc(-c4ccc(F)cc4)ccc3c2N)c1 | inconclusive: 2 µM [rising, full curve, poor fit] | –
CC#C[C@@H](CC(=O)O)c1ccc(OCc2cccc(-c3ccc(C(F)(F)F)cc3)c2)cc1 | – | inactive: -11.2%
O=S(=O)(NCC1CN(CC2CC2)CC12CCCCC2)c1cccnc1 (stereo not drawn) | – | inactive: 4.62%
Cn1c(CN(CCN2CCCCC2)CC2CCCN(C3CCCC3)C2)nc2ccccc21 (stereo not drawn) | inconclusive: 15.8 µM [cytotoxic, single point] | –
O=C(Nc1ccc(C(=O)OCc2cc(=O)n3nc(C4CC4)sc3n2)cc1)c1cccc(F)c1 | inconclusive: 0.316 µM [rising, full curve, poor fit] | –
O=C(CCc1ccccc1)N1CCCc2ncc(C(=O)N3CCCC[C@@H]3Cc3ccccc3)cc21 | inconclusive: 17.8 µM [cytotoxic, partial curve, poor fit] | –
CCC1=NS(=O)(=O)c2cc(NC(=O)C3CC3)ccc2N1CC(C)C | inconclusive: 0.708 µM [cytotoxic, partial curve, poor fit] | –
CCNc1ncc2nc(-c3ccccc3)c(=O)n(C)c2n1 | inconclusive: 14.1 µM [rising, partial curve] | –
CCN1CCN(C(=O)c2cn3cc(-c4ccc(C(F)(F)F)cc4)sc3n2)CC1 | – | inactive: 4.72%
Cc1ccc(Nc2c(-c3ccc(C)s3)nc3ncccn23)cc1 | inconclusive: 22.4 µM [rising, single point] | –
COc1ccc(NC(=O)N2Cc3[nH]cnc3C[C@H]2c2nc(-c3ccc(F)cc3)no2)cc1 | inconclusive: 4.47 µM [cytotoxic, partial curve, poor fit] | –
COC(=O)c1cc(Cl)ccc1NC(=O)CSc1ncc(S(=O)(=O)c2ccc(Br)cc2)c(=O)[nH]1 | inconclusive: 8.91 µM [rising, full curve, poor fit] | –
O=C1CCN(C(=O)[C@@H](Cc2ccccc2)NS(=O)(=O)c2cccc3cccnc23)CCOCCN1 | inconclusive: 39.8 µM [cytotoxic, single point] | –
CC1=C[C@@H](CN2CCN(c3ccccn3)CC2)[C@H](C(C)C)C[C@H]1Cc1nnc(C)o1 | – | inactive: -15.3% [at 87.6 µM]
Cc1nn(CCC#N)c(C)c1[C@@H]1C=C[C@@H](NC(=O)Nc2ccccc2)C1 | – | inactive: 0.316% [at 87.6 µM]
COc1ccc(C(=O)N2CCC(Cc3nc(-c4ccccc4)no3)CC2)cc1F | inconclusive: 1 µM [rising, full curve, poor fit] | –
O=C(C1CC1)N1CCCC(c2nn(-c3ccccn3)c(=O)[nH]2)C1 (stereo not drawn) | – | inactive: 13.3% [at 87.6 µM]
COC[C@@H]1CN(Cc2ccncc2F)C[C@H]1C(=O)NC1CC1 | inconclusive: 1.41 µM [rising, full curve, poor fit] | –
Cc1cccc(C(=O)Nc2sc3c(c2C(=O)NC(C)C)CCCC3)c1 | inconclusive: 14.1 µM [cytotoxic, partial curve, poor fit] | –
Cc1cccc(N(C)C(=O)Cc2c(C(=O)O)[nH]c3ccccc23)c1 | inconclusive: 25.1 µM [cytotoxic, single point] | –
C=CC(=O)Nc1cc(Nc2nccc(-c3cn(C)c4ccccc34)n2)c(OC)cc1N(C)CCN(C)C | inconclusive: 23.8 µM [cytotoxic, partial curve] | –

Compound | Potency | activity change, negative = cytotoxicity
O=C(c1ccccc1)N1CCc2sc(C(=O)N3CCN(c4ccccn4)CC3)cc2C1 | – | inactive: -5.42%
Cc1ccc(C(=O)Oc2cc(-c3ccc4c(c3)OCO4)cc(=O)c3c(C)oc(C)c23)cc1 | inconclusive: 39.8 µM [cytotoxic, single point] | –
CNC(=O)CCn1ncc2cc(OCc3ccccc3-c3cccc(NC(C)=O)c3)ccc21 | – | inactive: -5.87%
Cc1nn(-c2cccc(Br)c2)c(C)c1[C@@H]1C=C[C@@H](NCc2cccc(C#N)c2)C1 | inconclusive: 39.8 µM [cytotoxic, single point] | –
COc1cc(NC(=O)c2cccc(-n3cc(NC(=O)Nc4cccc(C)c4)cn3)c2)cc(OC)c1OC | inconclusive: 23.8 µM [cytotoxic, partial curve, poor fit] | –
O=C(NCCN1CCCCC1)c1ccc(Cn2c(SCc3ccccc3)nc3cccnc32)cc1 | inconclusive: 1.12 µM [cytotoxic, full curve, poor fit] | –
COc1ccc(-c2nc3cnc(N4CCN(C)CC4)nc3n(Cc3cccs3)c2=O)cc1 | inconclusive: 28.2 µM [rising, partial curve, poor fit] | –
CN1CC[C@@H](c2c(O)cc(O)c3c(=O)cc(-c4ccccc4Cl)oc23)[C@@H](O)C1 | inconclusive: 0.242 µM [cytotoxic, full curve] | –
COc1ccc(C(=O)N2CCC3(CC2)NC(=O)N(c2cccc(F)c2)N3)cc1 | – | inactive: -6.27%
Cn1ncc2c(C(=O)NCc3ccc(F)cc3)cc(-c3cccnc3)nc21 | – | inactive: -9.08%
Cc1ccc(NC(=O)c2nc(S(C)(=O)=O)ncc2N(Cc2ccco2)Cc2cccs2)cc1C | inconclusive: 39.8 µM [cytotoxic, partial curve, poor fit] | –
O=C(NCc1ccccc1Cl)c1ccc2nnc(Cc3ccc(Cl)cc3)n2c1 | – | inactive: 6.15%
C=CC(=O)Nc1cc(Nc2nccc(-c3c[nH]c4ccccc34)n2)c(OC)cc1N(C)CCN(C)C | inconclusive: 10.6 µM [cytotoxic, partial curve, poor fit] | –
O=C(Cc1c[nH]c2ncc(-c3ccccc3)cc12)NCCc1ccccc1 | – | inactive: -26.1% [at 87.6 µM]
CNC(=O)c1cc(-c2ccccc2)cc2c1OCCN2Cc1cccnc1 | inconclusive: 15.8 µM [cytotoxic, partial curve, poor fit] | –
COC(=O)[C@@H]1Cc2c([nH]c3ccccc23)[C@@H]2C[C@@H](NCCNC(C)=O)C[C@@H](c3ccc(F)c(F)c3)N12 | – | inactive: -0.716%
COC(=O)c1ccnc(-c2cc(C(=O)NCCc3ccccc3)ccn2)c1 | inconclusive: 21.2 µM [rising, single point] | –
CN1CCCC2(CCN(C(=O)c3cc(=O)[nH]c4ccc(F)cc34)C2)C1=O (stereo not drawn) | – | inactive: 4.06%
Cc1ccccc1C(=O)NC1CCN(c2cc(-c3ccc(F)cc3)[nH]n2)C1 (stereo not drawn) | – | inactive: 1.75%
O=C(CC(c1ccc(F)cc1)c1cn(Cc2ccccc2)c2ccc([N+](=O)[O-])cc12)N1CCOCC1 (stereo not drawn) | inconclusive: 7.08 µM [cytotoxic, partial curve] | –
O=C(c1cccc(OC2CN(CC3CC=CCC3)C2)c1)N1CCCC1 (stereo not drawn) | inconclusive: 3.16 µM [cytotoxic, full curve] | –

Compound | Potency | activity change, negative = cytotoxicity
O=C(CN(c1ccc(Cl)c(C(F)(F)F)c1)S(=O)(=O)c1ccccc1)Nc1cccnc1 | inconclusive: 39.8 µM [cytotoxic, single point] | –
O=C(NCc1ccc2c(c1)OCO2)C1CN(c2ccccc2)C(=O)N1 (stereo not drawn) | inconclusive: 56.2 µM [cytotoxic, single point] | –
CC(C)CNc1ccc2c(n1)C(C)(C(=O)N1CCOCC1)CN(Cc1ccccc1)C2 (stereo not drawn) | inconclusive: 22.4 µM [rising, partial curve, poor fit] | –
Cc1cc(C(=O)N2CCCC3(C2)Nc2cccnc2NC3=NCc2ccccc2)nn1C (stereo not drawn) | – | inactive: -0.419%
Cc1cccc(N2CCN(c3ncnc4c3nc3n4CCCCC3)CC2C)c1 (stereo not drawn) | inconclusive: 3.16 µM [cytotoxic, full curve] | –
CCOc1ccc(-c2nc(CSCC(=O)NCc3ccc(C)cc3)c(C)o2)cc1 | – | inactive: 2.9%
Cc1ccccc1C(=O)N1CCC(N2CC3CCCN3C2=O)CC1 (stereo not drawn) | – | inactive: -21.2% [at 87.6 µM]
COc1ccc(-c2cc(N3CCCC(NC(=O)c4c[nH]c5ccccc45)C3)n[nH]2)cc1 (stereo not drawn) | inconclusive: 5.01 µM [cytotoxic, partial curve, poor fit] | –
CCS(=O)(=O)N1C[C@@H]2CN(Cc3coc(C)n3)C[C@]2(C(=O)O)C1 | inconclusive: 10 µM [rising, partial curve, poor fit] | –
COc1cc(CN2C[C@@H]3C(=O)N(CCCN4CCCC4=O)C(=O)[C@@H]3C2)cc(OC)c1 | – | inactive: 1.56%
CCNc1ncc2nc(-c3cccs3)c(=O)n(CCC#N)c2n1 | inconclusive: 3.55 µM [rising, partial curve, poor fit] | –
CC(=O)NCC(=O)N1CCCC(n2cc(-c3nc(-c4ccccc4)no3)nn2)C1 (stereo not drawn) | – | inactive: 5.58%
CN1CCN(c2ncc3nc(-c4ccccc4)c(=O)n(Cc4cccs4)c3n2)CC1 | inconclusive: 39.8 µM [rising, single point] | –
COCCn1c(=O)c(-c2ccc(OC)cc2)nc2cnc(Nc3cccc(OC)c3)nc21 | inconclusive: 6.31 µM [rising, full curve] | –
COc1cccc(CCC(=O)NCc2nnc3ccc(-c4ccccc4)nn23)c1 | – | inactive: -2.73%
COc1ccc(Nc2cc3c(cn2)CN(CCc2ccccc2)CCN3)cn1 | inconclusive: 20 µM [cytotoxic, partial curve, poor fit] | –
CN(Cc1ccccc1)C(=O)c1ccnc(-c2nnc3ccc(Nc4ccccc4)nn23)c1 | inconclusive: 50.1 µM [cytotoxic, single point] | –
Cc1ccc(NC(=O)c2cc(S(=O)(=O)NC3CCCCCC3)ccc2F)cc1F | inconclusive: 10 µM [cytotoxic, partial curve] | –
CCOc1ccccc1NC(=O)N1CCCCCCNC(=O)[C@H]2CCC[C@H]21 | inconclusive: 5.01 µM [cytotoxic, full curve, poor fit] | –
COCCNC(=O)c1c(C)sc2ccn(Cc3ccc(F)cc3)c(=O)c12 | – | inactive: 4.18%
CC(C(=O)N1CCN(c2cc(-c3ccc(Cl)cc3)[nH]n2)CC1)c1ccccc1 (stereo not drawn) | inconclusive: 35.5 µM [cytotoxic, single point] | –
